The target in this test is T1, CD37 on CD37+ target tumor cells (Daudi or Ramos cells) (UniProt P11049).
T1 sequence (looked up): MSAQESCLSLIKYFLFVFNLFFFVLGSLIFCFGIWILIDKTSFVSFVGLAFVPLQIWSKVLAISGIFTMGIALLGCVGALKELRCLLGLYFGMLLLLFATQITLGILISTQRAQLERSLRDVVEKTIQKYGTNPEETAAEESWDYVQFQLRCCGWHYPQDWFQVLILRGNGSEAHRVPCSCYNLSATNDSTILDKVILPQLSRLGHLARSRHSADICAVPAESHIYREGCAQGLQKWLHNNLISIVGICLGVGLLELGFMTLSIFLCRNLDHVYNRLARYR
Kind of test: cell-based or functional assay.

The values that follow come from US20260209358A1.

B1: AGS67C IgG (parent CD37 IgG) (antibody, V domains shown)
VH: QVQLQQWGAGLLKPSETLSLTCAVYGGSFSPYYWSWIRQPPGKGLEWIGEINHSGSTNYNPSLKSRVTISVDTSKNQFSLKLSSVTAADTAVYYCARRAGDFDYWGQGTLVTVSS
VL: [about 100 residues left out here]FGQGTKLEIKR
In the case of B1, the EC50 of ADCC (calcein release) on Ramos cells with primary human NK cells was 0.00933 nM, the EC50 of ADCP on Ramos cells with THP-1 effector cells was 0.0191 nM and the EC50 of CDC (PI+ cells) on Daudi cells with normal human serum turned out to be 0.51 nM.
